# Test results from the RNAGym collection of RNA variant scans (doi:10.1073/pnas.2313332121).
# Variants at the floor of the assay are shown more often than the library holds them.
# B1: TPR 5TU (parent)
# chain: GGAUCUUCUCGAUCUAACAAAAAAGACAAAUCUGCCACAAAGCUUGAGAGCAUCUUCGGAUGCAGAGGCGGCAGCCUUCGGUGGCGCGAUAGCGCCAACGUUCUCAACUAUGACACGCAAAACGCGUGCUCCGUUGAAUGGAGUUUAUCAUG
# Variants of: B1
# Experiment: polymerase ribozyme fitness, log enrichment relative to wild type (log ratio); higher = more active; in vitro selection for triplet polymerase activity
# Procedure, shortened: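 Mutant libraries were PCR-built and transcribed for each subunit of a heterodimeric triplet polymerase ribozyme and selected for one round in triplicate at −7 °C, frozen, before gel excision of extended constructs and streptavidin-bead capture. Input and output libraries were Illumina-sequenced, keeping genotypes with ≥10 input reads and ≥1 read per output. Fitness is a logarithmic ratio of genotype to wild-type enrichment, in base 2, using inverse-variance-weighted replicate averages.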
row,Variant,polymerase ribozyme fitness (log ratio)
1,C54U U101G,-0.483
2,U55A A60C C87A A115G,≤ -4.2
3,U55A A60G C69U G92U A147U,-0.244
4,U55A A60G C76G C87G C96U U139A G140C,≤ -4.2
5,U55A A60U C85G A106U C116U A138U U146G,≤ -4.2
6,U55A A64C C85U U146G,≤ -4.2
7,U55A A66C U77A C87A,≤ -4.2
8,U55A A73U C96A A97U C118U,≤ -4.2
9,U55A A89U U102G,≤ -4.2
10,U55A A91C,≤ -4.2
11,U55A A91U,≤ -4.2
12,U55A A97C,0.466
13,U55A A106U A107U,-4.11
14,U55A A115U G133U,≤ -4.2
15,U55A A119G U139G,0.219
16,U55A A138G,-2.51
17,U55A C57A C93U G126U A138G U148A,≤ -4.2
18,U55A C69A A97U U102C C149A,≤ -4.2
19,U55A C69A C93G C105U G141U A147C,≤ -4.2
20,U55A C69A G86A G94A C114U U130G U144A,≤ -4.2
21,U55A C69U C93U,-3.95
22,U55A C69U G136A,-3.04
23,U55A C72U C76U U78C G84A,-2.57
24,U55A C72U C93A C99G G140A G143U,≤ -4.2

row,Variant,polymerase ribozyme fitness (log ratio)
1,U55A C72U G80C C105U C125G G128A G141U,≤ -4.2
2,U55A C75A C93G,≤ -4.2
3,U55A C75U,0.238
4,U55A C76U A121C,-0.181
5,U55A C79A A121C,≤ -4.2
6,U55A C87G C105A G136C,≤ -4.2
7,U55A C87G C149G,≤ -4.2
8,U55A C87G G143U,≤ -4.2
9,U55A C87U U146A,-1.36
10,U55A C93G A137G,≤ -4.2
11,U55A C103G,-2.22
12,U55A C108G,≤ -4.2
13,U55A C116G,0.374
14,U55A G58U G84A C103U A120C,-0.0961
15,U55A G59A A60G U78A C79G C131G,≤ -4.2
16,U55A G59U A60G G94A,-1.02
17,U55A G62A C87U C103U,-1.44
18,U55A G62A G65C U78G C96A,≤ -4.2
19,U55A G62C C79A A138U,≤ -4.2
20,U55A G62C G81A,-3.98
21,U55A G62U A64C A73C C87U,≤ -4.2
22,U55A G67A C85U U90A A98U,≤ -4.2
23,U55A G68A C69A G83A C125A,≤ -4.2
24,U55A G68A C76A A89C C93U C95A C108A A115U G117A U130G,≤ -4.2

row,Variant,polymerase ribozyme fitness (log ratio)
1,U55A G68C A73U C85A A113U,≤ -4.2
2,U55A G70A C76A,≤ -4.2
3,U55A G70A C123G,-3.3
4,U55A G71A A73U,≤ -4.2
5,U55A G71A U90A C96U U135A,≤ -4.2
6,U55A G74C C118U,≤ -4.2
7,U55A G80A,-1.65
8,U55A G80U G84C C93G G140U G143C,≤ -4.2
9,U55A G81C C87A A91U U144C U145C,≤ -4.2
10,U55A G81U G88C A120G G143A,≤ -4.2
11,U55A G83U A137C,≤ -4.2
12,U55A G84A C95A A97C C103G,≤ -4.2
13,U55A G86A C93A U104C A113U G126A,≤ -4.2
14,U55A G86U U145G,-1.41
15,U55A G86U U148A,≤ -4.2
16,U55A G88C C96U U101G,≤ -4.2
17,U55A G88C G133U U145C,≤ -4.2
18,U55A G92U,-1.03
19,U55A G94A C108G,≤ -4.2
20,U55A G94C,-0.443
21,U55A G117A,-0.438
22,U55A G124C C125U U148A,≤ -4.2
23,U55A G128A,-4.18
24,U55A G136A,-0.833

row,Variant,polymerase ribozyme fitness (log ratio)
1,U55A G143C,-2.99
2,U55A U56A G65A C87A,≤ -4.2
3,U55A U56C G70A C79A G92U C149G,≤ -4.2
4,U55A U61A C96A C116G,-2.17
5,U55A U61G C96U C123U G140C,≤ -4.2
6,U55A U61G C125G,≤ -4.2
7,U55A U77C A120U U144G,≤ -4.2
8,U55A U77C A150C,≤ -4.2
9,U55A U82C G92A C125G,≤ -4.2
10,U55A U109G A137U,-4.19
11,U55A U135A,-1.74
12,U55A U144A,-0.497
13,U55A U144G U148C,≤ -4.2
14,U55C C76G C93G C129G U139C U144G,≤ -4.2
15,U55C C85U G136C,-3.51
16,U55C G58A C87G,≤ -4.2
17,U55C G74C G140A,≤ -4.2
18,U55C G83C A115C C132U,-2.06
19,U55C U56A A98U U145A,-1.11
20,U55C U78C G117U U135G U151G,≤ -4.2
21,U55G A60G C69U A91G U144A,-2.3
22,U55G A73C C87A,≤ -4.2
23,U55G A98U U144G,0.317
24,U55G A110G,-2.87

row,Variant,polymerase ribozyme fitness (log ratio)
1,U55G C57U U82G C87A G88A C95U C116A C118A,≤ -4.2
2,U55G C69A C99U,-0.89
3,U55G C72G C85A C105U G141U,≤ -4.2
4,U55G C79A G81A A120G,≤ -4.2
5,U55G C79U C105U G136U,≤ -4.2
6,U55G C85A C93A A121U G126A U144A,≤ -4.2
7,U55G C85U,-0.188
8,U55G C87A C118U U130G,≤ -4.2
9,U55G C87U,-1.42
10,U55G C87U C93U C108U G141U,≤ -4.2
11,U55G C87U C116G U139A,≤ -4.2
12,U55G C87U U111C U148A,≤ -4.2
13,U55G C114U,-2.17
14,U55G G59C A142C,-3.24
15,U55G G59C G94C U102A U127A U135C,≤ -4.2
16,U55G G65A A97U U130C,-1.27
17,U55G G70A C129G,≤ -4.2
18,U55G G74U U90G C105U C118U,≤ -4.2
19,U55G G80C C118U C125A G133C U144A U148A,≤ -4.2
20,U55G G81A U139C,≤ -4.2
21,U55G G81U G84C G86A G88U A121U U135G,≤ -4.2
22,U55G G83C,-0.921
23,U55G G84A C99A A120G C131U,-2.08
24,U55G G84A C99U A106C A122C A137U,≤ -4.2

row,Variant,polymerase ribozyme fitness (log ratio)
1,U55G G86C,≤ -4.2
2,U55G G86U,-0.476
3,U55G G88C U109A A121C,≤ -4.2
4,U55G G94A A98U C118A,-1.56
5,U55G U61A G84C C85A C125U,≤ -4.2
6,U55G U61C G143A,≤ -4.2
7,U55G U127A,-3.34
8,U55G U145A,-0.604
9,U56A A60C G92U,-1.73
10,U56A A60U C93U G141U,-3.71
11,U56A A64U C87G,≤ -4.2
12,U56A A66G G88A C95G A97C A119C,≤ -4.2
13,U56A A73G U77A G88C A98G C105A,≤ -4.2
14,U56A A73U C85G A110U,≤ -4.2
15,U56A A73U G81C U111A U135G,≤ -4.2
16,U56A A89C U139C,≤ -4.2
17,U56A A91G,-3.41
18,U56A C57G A113C,-1.82
19,U56A C57U G83A,0.0377
20,U56A C57U G86C A98C G141A G152A,-3.31
21,U56A C57U U61A C75A G88U A120U U139A G143C,≤ -4.2
22,U56A C63U U77A C87U U104C U135A,≤ -4.2
23,U56A C69A U77G G83U C105G,≤ -4.2
24,U56A C69G U148A,-4.17

row,Variant,polymerase ribozyme fitness (log ratio)
1,U56A C75A G92A C129G,≤ -4.2
2,U56A C75G C87G,≤ -4.2
3,U56A C75U G143A,-0.711
4,U56A C76A C108A G140C A147U,≤ -4.2
5,U56A C79G U146C U148A,≤ -4.2
6,U56A C85G C103G C108G,≤ -4.2
7,U56A C85U A142U,-1.06
8,U56A C87U C105A U111A C132U G141A,≤ -4.2
9,U56A C93A U102G C118U,≤ -4.2
10,U56A C93U C116U,-1.11
11,U56A C95U C99U C125G,-2.57
12,U56A C96A C103U,0.293
13,U56A C96G U139G,-0.96
14,U56A C96U C99A A107C,≤ -4.2
15,U56A C99U U134G C149A,≤ -4.2
16,U56A G58A C72U C87U U109G G136A U144C,-4.13
17,U56A G58C C93A G124A,-2.36
18,U56A G58C U134A A138G,≤ -4.2
19,U56A G59A A113C G152U,≤ -4.2
20,U56A G59A C96U,0.392
21,U56A G59C U139A,≤ -4.2
22,U56A G65C A91C C103A G133U,≤ -4.2
23,U56A G70C U90G C95G G133U G140U,≤ -4.2
